The supplement of paper PMC12217912
The list shows a part of the results. The full chains were built here from the parent and the listed change. Inactive controls read about 0.05.

B1: TEV protease; numbered along this chain (parent)
chain: MGESLFKGPRDYNPISSSICHLTNESDGHTTSLYGIGFGPFIITNKHLFRRNNGTLVVQSLHGVFKVKDTTTLQQHLVDGRDMIIIRMPKDFPPFPQKLKFREPQREERICLVTTNFQTKSMSSMVSDTSCTFPSGDGIFWKHWIQTKDGQCGSPLVSTRDGFIVGIHSASNFTNTNNYFTSVPKNFMELLTNQEAQQWVSGWRLNADSVLWGGHKVFMVKPEEPFQPVKEATQL

Variants of: B1
Assay: raw area under fraction-flipped curve 0-4 h after induction (AUC4h, not background-subtracted), DNA-recorder readout of cleavage of the substrate (dimensionless); higher = more cleavage of the substrate by the protease variant
Details: temperature: 34 °C; time window: 0-4 h after rhamnose induction
Method: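 In vivo DNA recorder in E. coli TOP10(DE3) ΔrhaA at 34 °C. Each TEVp single-site mutant (parent TEVp 0) is paired with a single-site variant of the 7-mer TEVs (canonical ENLYFQ|S). The substrate sits between flexible linkers in a Bxb1-sfGFP-TEVs-SsrA fusion, so cleavage stabilises Bxb1 and speeds flipping of a recombination array, read by NGS. The value is the raw area under the fraction-flipped curve over 0-4 h after rhamnose induction (AUC4h), with ≥20 reads per time point. It is not background-subtracted; inactive controls average about 0.047.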
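Further: Bxb1 expression induced with 0.2% (w/v) L-rhamnose at OD600 near 0.5, cultures sampled hourly, flipped fraction per protease–substrate barcode pair counted by paired-end Illumina sequencing.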

Variant	area with substrate ENLYFQA	area with substrate ENLYFQC	area with substrate ENLYFQL	area with substrate ENLYFQM	area with substrate ENLYFQS	area with substrate ENLYFQW	area with substrate ENLYFQY	area with substrate ENLYFQD	area with substrate ENLYFQF	area with substrate ENLYFQG	area with substrate ENLYFQH	area with substrate ENLYFQI	area with substrate ENLYFQK	area with substrate ENLYFQN	area with substrate ENLYFQP	area with substrate ENLYFQR	area with substrate ENLYFQT	area with substrate ENLYFQV	area with substrate ENLYFQE	area with substrate ENLYFQQ
E3N	0.101	0.159	0.0366	0.116	0.127	0.0606	0.0699	–	–	–	–	–	–	–	–	–	–	–	–	–
S4L	0.0683	0.0766	0.063	0.0649	0.0747	0.0693	0.0633	0.0674	0.0604	0.0731	0.0814	0.0557	0.0608	0.0696	0.0512	0.0628	0.0633	0.0612	–	–
L5M	0.14	0.124	0.0657	0.111	0.129	0.0613	0.112	–	0.0862	–	–	0.047	0.0732	0.0897	–	–	0.0759	–	0.0846	–
Y12Q	0.0752	0.103	0.0521	0.0892	0.106	0.064	–	–	0.0809	0.0834	0.11	0.0558	0.0685	0.0702	0.0587	0.056	0.0629	0.0517	–	–
Y12V	0.0802	0.128	0.0553	0.0765	0.107	0.0691	0.0763	–	–	0.106	0.0758	0.0545	0.064	0.0727	–	0.0518	0.0629	0.0633	0.042	0.0782
N13C	0.0886	0.104	0.0596	0.0728	0.103	0.0479	0.0719	0.06	–	0.0768	0.0589	0.0679	0.0638	0.074	0.066	0.0598	0.0342	0.0619	–	0.0241
N13Q	0.117	0.124	0.059	0.0996	0.11	0.0753	–	0.0612	0.0778	0.112	0.089	0.0589	0.0602	0.0629	0.0604	0.0604	0.0677	0.068	0.0787	0.0703
I15F	0.101	0.099	0.0552	0.0821	0.0908	0.069	–	0.0748	–	0.0958	0.0679	0.0644	0.0648	–	0.0733	0.0518	0.0606	0.0456	–	0.0744
I15L	0.105	0.128	0.0534	0.0785	0.0997	0.0597	0.0776	0.0588	–	0.109	0.0717	0.0491	0.0645	0.0733	0.0643	0.0586	0.0643	–	0.0468	0.0633
I15N	0.0696	0.0857	0.0582	–	0.0749	0.0518	0.0604	–	–	–	0.0568	0.0608	0.0622	0.0624	0.0443	0.0428	0.0553	0.0535	–	0.0515
S16F	0.0914	0.119	–	0.0964	0.107	0.0472	–	–	0.0642	0.124	–	0.0699	0.0583	0.0853	0.0557	0.0602	0.0701	–	0.0696	0.0694
S17G	0.0657	0.123	0.0612	0.114	0.108	0.0568	0.0621	0.0772	0.0714	–	0.0912	0.059	0.0588	0.0773	0.0543	0.059	0.0712	0.0525	0.0598	–
S18N	0.0839	0.0896	0.063	0.108	0.0965	0.0709	–	–	–	0.109	–	0.065	0.0583	0.0618	–	0.0568	0.0626	–	–	–
S18T	0.0841	0.129	0.063	–	0.111	0.0792	0.0819	–	–	0.118	–	0.0304	0.0677	0.0897	–	0.0659	0.0683	0.0535	–	–
I19G	0.0731	0.073	0.0592	0.0506	0.0805	0.057	–	–	0.0866	0.0754	0.0745	0.0548	0.0651	0.0621	0.0526	0.0545	0.0464	0.0541	–	0.0681
H21E	0.0098	0.0907	0.0575	0.0797	0.0858	0.0613	0.0656	–	0.0861	0.101	–	0.0586	0.0615	0.0688	0.0584	0.0527	0.0619	0.0625	0.0888	0.0768
H21F	0.0956	0.1	0.0636	0.0822	0.0984	0.0843	0.0798	0.0705	0.0853	0.14	0.0666	0.0748	–	0.0603	0.0561	0.0562	–	–	0.0517	–
H21I	0.0804	0.0916	0.0588	0.0854	0.0929	0.0624	0.0702	0.0696	0.0852	0.0744	0.0832	0.0617	0.0606	0.0712	0.0627	0.0609	0.0443	0.0624	–	0.0459
H21T	0.0713	0.0934	0.061	0.0904	0.0919	0.0664	0.0633	–	–	0.0943	0.0834	0.0689	0.061	0.0734	–	0.04	0.0602	0.0573	–	–
T23G	0.0565	0.0697	0.0567	0.0671	0.0782	0.0598	0.0647	0.0812	0.0704	0.0899	0.0679	0.0667	0.0607	0.0757	–	0.0493	0.0562	0.058	–	0.0618
T23W	0.0894	0.0909	0.0635	0.072	0.0911	0.0651	0.0796	–	0.0705	0.0823	0.0755	0.0645	0.0634	0.0748	0.0567	0.0606	0.067	0.0648	–	0.0413
N24A	0.0813	0.0694	0.0593	0.0576	0.0805	–	0.071	0.0736	0.0636	0.0623	0.0805	0.0628	0.0578	0.0714	0.059	0.061	0.0678	0.0604	–	–
